Measured values: ChEMBL document CHEMBL4888484, “Replenishing the malaria drug discovery pipeline: Screening and hit evaluation of the MMV Hit Generation Library 1 (HGL1) against asexual blood stage Plasmodium falciparum ,using a nano luciferase reporter read-out” (2022)
Screen size: about 150,000 compounds; about 540 (0.36%) showed an effect of 50% or more. The list shows a part of the results.

Tested on: Plasmodium falciparum
Assay: Primary screen in NF54 nanoGlo assay, in single point, at 2uM, 72h; a lower Z score goes with more inhibition
Assay type: functional, Erythrocyte
Conditions: timepoint 72 hour

Going from `COCCc1ncc(-c2c(-c3ccccc3)ncn2CC2=CCCCC2)cn1` to `Cc1ccc2[nH]cc(-c3cccc(-n4cnnc4)c3)c2c1`, the “% Inhibition” value rises from -13% to 0%.

First: CCCNC(=O)C1CCN(C(=O)[C@@H]2COC(=O)N2)CC1
Second: CCNC(=O)N1CC[C@H](c2noc(C3CC3)n2)C1
The “% Inhibition” value of the first is lower: -44% for the first, -5% for the second.

Compared with `O=C1C[C@H]2CC[C@@H](CN1)N2Cc1cccc(OCCO)c1`, `OC[C@H]1CN2CCC[C@H]2CN1Cc1ccc2cc[nH]c2c1` is higher in “% Inhibition” value: -14% for the first, 0% for the second.

Compared with `CCc1nn(C)cc1NC(=O)NC[C@H]1CN(C)C[C@@H]1c1ccccc1`, `Cc1ncoc1CNC(=O)[C@H]1C[C@@H]1c1ccccc1` is lower in “% Inhibition” value: 4% for the first, -9% for the second.

First: O=C(Nc1ccncc1)c1cc2c(F)cccc2s1
Second: Cc1ccc(C)c(S(=O)(=O)NCCn2c(-c3ccncc3)nc3ccccc32)c1
The “% Inhibition” value of the first is lower: -11% for the first, 4% for the second.

Compared with `OCCCn1nc(C2(c3ccccc3)CC2)nc1CC1CCCC1`, `CCn1nc(C(=O)N2CC[C@H]2C2CCCC2)c(=O)c2ccccc21` is lower in “% Inhibition” value: 0% for the first, -11% for the second.

First: Cc1nc(CNC(=O)CC#N)sc1C
Second: Cc1nc(C(=O)NCc2ccncc2C(F)(F)F)c(C)o1
The “% Inhibition” value of the first is higher: 9% for the first, -18% for the second.

Going from `CCN(CCC#N)S(=O)(=O)N1CCN(c2cccs2)C(=O)C1` to `CC1CCN(c2nc3c(c(N(C)C)n2)CN(C(=O)c2cccs2)CC3)CC1`, the “% Inhibition” value falls from -2% to -5%.

First: Cc1noc(C)c1[C@H](C)NS(=O)(=O)c1c(F)cccc1Cl
Second: CCC(C)(C)NS(=O)(=O)c1c(C)sc(C)c1-c1ccno1
The “% Inhibition” value of the first is lower: -15% for the first, -11% for the second.

First: Cc1cc(C(C)NC(=O)CNCC2CCCO2)cc(C)c1F (stereo unspecified)
Second: Cc1cc(N2CCCCCC2)c(F)cc1C(=O)c1ccccc1
The “% Inhibition” value of the first is lower: 0% for the first, 3% for the second.

Compared with `CC(C)CCC(C)(O)CNC(=O)C1CC1C` (stereo unspecified), `CCN1C(=O)CO[C@H](C(=O)N[C@@H](CO)COC)[C@H]1c1ccccc1` is lower in “% Inhibition” value: 0% for the first, -2% for the second.

Compared with `CCNC(=O)COc1ccc(NC(=O)c2cc(S(=O)(=O)NCc3ccco3)ccc2C)cc1`, `Cn1nccc1C(=O)NCc1ccc2c(c1)CCN2C(=O)c1ccccc1` is higher in “% Inhibition” value: -12% for the first, -5% for the second.

First: COc1ccc(CNC(=O)N2CCC3C(CCCN3C)C2)cc1Cl (stereo unspecified)
Second: O=C(NC1Cc2ccccc2C1)N1CC[C@H](N2CCOCC2)C1
The “% Inhibition” value of the first is higher: 2% for the first, -9% for the second.

Going from `COc1cncc(N(C)Cc2nccn2CC(F)(F)F)n1` to `CN(C)S(=O)(=O)c1ccc(NC(=O)NCC(F)(F)F)nc1`, the “% Inhibition” value falls from 3% to -9%.

Compared with `CN(Cc1n[nH]c(C(C)(C)C)n1)C[C@]1(O)CCc2ccccc21`, `Cc1n[nH]c(N2CCN(Cc3cccc4c3OCCO4)CC2)n1` is higher in “% Inhibition” value: -5% for the first, -3% for the second.

Going from `Cc1cc(C(=O)N2C[C@H](C)Oc3ccc(Cl)cc32)ccc1N1CCOCC1` to `Cc1cc(N2CCS(=O)(=O)CC2)c2cc(Cl)cc(C)c2n1`, the “% Inhibition” value falls from 3% to -16%.

Compared with `Cc1ocnc1C(=O)N1CCc2nc(N)nc(N3CC[C@H](O)C3)c2CC1`, `COc1cccc(C(=O)N2CCN(C(=O)Cc3sc(C)nc3C)CC2)c1` is higher in “% Inhibition” value: -11% for the first, -2% for the second.

Going from `O=C(c1ccc(Br)o1)N1CC(c2nc(C3CC3)no2)C1` to `O=C1C[C@H](NC(=O)c2cc(C3CC3)on2)CN1`, the “% Inhibition” value rises from -20% to -8%.

Compared with `CNC(=O)[C@@H]1C[C@H](Oc2ccccc2)CN1C1CCN(C(=O)CCc2c(C)nn(C)c2C)CC1`, `Cc1ccc(S(=O)(=O)N2CCCC(C(=O)N[C@@H]3CCCC[C@H]3NC(=O)c3ccccc3)C2)cc1` (stereo partly specified) is lower in “% Inhibition” value: 1% for the first, -14% for the second.

First: Cn1cc(Br)c(CNC(=O)C2(C)CCOCC2)n1
Second: O=C(NCC(F)(F)F)N(Cc1ccc2c(c1)CCO2)C1CCCC1
The “% Inhibition” value of the first is higher: 3% for the first, 1% for the second.

Compared with `CC[C@@]1(C)Oc2ccc(NCc3cc(C(N)=O)cs3)cc2O1`, `O=C(NCCCNC(=O)c1cccnc1)c1cccnc1` is higher in “% Inhibition” value: -14% for the first, -9% for the second.

For `CC1(CO)CCCC1NCC(O)C(F)(F)F` (stereo unspecified), the “% Inhibition” value was -1%.

Compared with `COCCc1ncc(-c2c(-c3ccccc3)ncn2CC2=CCCCC2)cn1`, `Cc1ccc2[nH]cc(-c3cccc(-n4cnnc4)c3)c2c1` is lower in Z score: 1.27 for the first, 0.02 for the second.

First: CCCNC(=O)C1CCN(C(=O)[C@@H]2COC(=O)N2)CC1
Second: CCNC(=O)N1CC[C@H](c2noc(C3CC3)n2)C1
The Z score of the first is higher: 5.19 for the first, 0.65 for the second.

Going from `O=C1C[C@H]2CC[C@@H](CN1)N2Cc1cccc(OCCO)c1` to `OC[C@H]1CN2CCC[C@H]2CN1Cc1ccc2cc[nH]c2c1`, the Z score falls from 2.7 to 0.03.

Going from `CCc1nn(C)cc1NC(=O)NC[C@H]1CN(C)C[C@@H]1c1ccccc1` to `Cc1ncoc1CNC(=O)[C@H]1C[C@@H]1c1ccccc1`, the Z score rises from -0.61 to 1.11.

First: O=C(Nc1ccncc1)c1cc2c(F)cccc2s1
Second: Cc1ccc(C)c(S(=O)(=O)NCCn2c(-c3ccncc3)nc3ccccc32)c1
The Z score of the first is higher: 1.17 for the first, -0.75 for the second.

Compared with `OCCCn1nc(C2(c3ccccc3)CC2)nc1CC1CCCC1`, `CCn1nc(C(=O)N2CC[C@H]2C2CCCC2)c(=O)c2ccccc21` is higher in Z score: -0.05 for the first, 1.54 for the second.

First: Cc1nc(CNC(=O)CC#N)sc1C
Second: Cc1nc(C(=O)NCc2ccncc2C(F)(F)F)c(C)o1
The Z score of the first is lower: -1.22 for the first, 2.02 for the second.

Compared with `CCN(CCC#N)S(=O)(=O)N1CCN(c2cccs2)C(=O)C1`, `CC1CCN(c2nc3c(c(N(C)C)n2)CN(C(=O)c2cccs2)CC3)CC1` is higher in Z score: 0.42 for the first, 0.59 for the second.

Going from `Cc1noc(C)c1[C@H](C)NS(=O)(=O)c1c(F)cccc1Cl` to `CCC(C)(C)NS(=O)(=O)c1c(C)sc(C)c1-c1ccno1`, the Z score rises from 1.29 to 1.88.

First: Cc1cc(C(C)NC(=O)CNCC2CCCO2)cc(C)c1F (stereo unspecified)
Second: Cc1cc(N2CCCCCC2)c(F)cc1C(=O)c1ccccc1
The Z score of the first is higher: 0.03 for the first, -0.4 for the second.

Going from `CC(C)CCC(C)(O)CNC(=O)C1CC1C` (stereo unspecified) to `CCN1C(=O)CO[C@H](C(=O)N[C@@H](CO)COC)[C@H]1c1ccccc1`, the Z score rises from 0.05 to 0.34.

Compared with `CCNC(=O)COc1ccc(NC(=O)c2cc(S(=O)(=O)NCc3ccco3)ccc2C)cc1`, `Cn1nccc1C(=O)NCc1ccc2c(c1)CCN2C(=O)c1ccccc1` is lower in Z score: 1.3 for the first, 0.87 for the second.

Compared with `COc1ccc(CNC(=O)N2CCC3C(CCCN3C)C2)cc1Cl` (stereo unspecified), `O=C(NC1Cc2ccccc2C1)N1CC[C@H](N2CCOCC2)C1` is higher in Z score: -0.4 for the first, 1.17 for the second.

Compared with `COc1cncc(N(C)Cc2nccn2CC(F)(F)F)n1`, `CN(C)S(=O)(=O)c1ccc(NC(=O)NCC(F)(F)F)nc1` is higher in Z score: -0.57 for the first, 1.41 for the second.

Compared with `CN(Cc1n[nH]c(C(C)(C)C)n1)C[C@]1(O)CCc2ccccc21`, `Cc1n[nH]c(N2CCN(Cc3cccc4c3OCCO4)CC2)n1` is lower in Z score: 0.93 for the first, 0.36 for the second.

Going from `Cc1cc(C(=O)N2C[C@H](C)Oc3ccc(Cl)cc32)ccc1N1CCOCC1` to `Cc1cc(N2CCS(=O)(=O)CC2)c2cc(Cl)cc(C)c2n1`, the Z score rises from -0.32 to 1.87.

Going from `Cc1ocnc1C(=O)N1CCc2nc(N)nc(N3CC[C@H](O)C3)c2CC1` to `COc1cccc(C(=O)N2CCN(C(=O)Cc3sc(C)nc3C)CC2)c1`, the Z score falls from 1.99 to 0.34.

Going from `O=C(c1ccc(Br)o1)N1CC(c2nc(C3CC3)no2)C1` to `O=C1C[C@H](NC(=O)c2cc(C3CC3)on2)CN1`, the Z score falls from 3.82 to 1.45.

Compared with `CNC(=O)[C@@H]1C[C@H](Oc2ccccc2)CN1C1CCN(C(=O)CCc2c(C)nn(C)c2C)CC1`, `Cc1ccc(S(=O)(=O)N2CCCC(C(=O)N[C@@H]3CCCC[C@H]3NC(=O)c3ccccc3)C2)cc1` (stereo partly specified) is higher in Z score: -0.19 for the first, 1.69 for the second.

Going from `Cn1cc(Br)c(CNC(=O)C2(C)CCOCC2)n1` to `O=C(NCC(F)(F)F)N(Cc1ccc2c(c1)CCO2)C1CCCC1`, the Z score rises from -0.4 to -0.12.

Compared with `CC[C@@]1(C)Oc2ccc(NCc3cc(C(N)=O)cs3)cc2O1`, `O=C(NCCCNC(=O)c1cccnc1)c1cccnc1` is lower in Z score: 1.9 for the first, 1.79 for the second.

`CC1(CO)CCCC1NCC(O)C(F)(F)F` (stereo unspecified) gave a Z score of 0.1.
